Reference: PubChem BioAssay (NCI)
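In this assay, cells in 96-well plates receive the compound at five concentrations for 48 hours. Endpoints are linearly interpolated between the surrounding concentrations. Here, GI50 denotes the concentration required for 50% inhibition of growth. TGI marks complete inhibition of growth.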

Tested on: NCI-H322M lung
Assay: DTP human tumour cell line panel, 48 h

CC(C)N=C([Se])NC(=O)c1cccs1
GI50: 2.96 µM
TGI: 11.4 µM

O=C(CSc1nnc(-c2ccc3nc(-c4ccc(Cl)cc4)[nH]c3c2)o1)Nc1ccc(Cl)cc1
GI50: 1.92 µM
TGI: 4.84 µM

CC(=O)Nc1ccc(-n2cnc3cc(-c4ccc(O)cc4)ccc32)cc1F
GI50: 6.02 µM
TGI: > 100 µM

CN1CCN(c2ccc3c(c2)nc(NNC(=O)c2cnccn2)c2cccn23)CC1
GI50: 0.165 µM
TGI: 8.13 µM

COc1ccc(C(=O)/C=C/c2cc3c(cc2Br)OCO3)cc1S(N)(=O)=O
GI50: 3.8 µM
TGI: 18.7 µM

c1n[nH]cc1-c1nc2ccc3[nH]ncc3c2c2c1CC1(CC2)COC1
GI50: 19.9 µM
TGI: 59.8 µM
